Measurements published in PubChem BioAssay AID1745853 (National Center for Advancing Translational Sciences (NCATS), 2022).
Some of the results follow. Further columns of the screen follow, without active or inactive calls.

Columns and labels:
Test in all cases: Primary Screen for Target Class Profiling of Small Molecule Inhibitors of Methyltransferases
[1] = target: Glycine N-methyltransferase (Homo sapiens) (UniProt Q14749); conditions: purified enzyme, MTase-Glo SAH luminescence; measured here: GNMT inhibition; at 40 µM; stronger effect = lower value
Text: (§1) PI: Matthew D. Hall Ph.D. and Quinlin M. Hanson Ph.D.
(§2) National Center for Advancing Translational Sciences (NCATS)
(§3) National Institute of Health (NIH), Rockville, MD
(§4) Target class profiling (TCP) is a chemical biology approach amenable to investigating understudied biological targets. TCP is achieved by developing a generalizable assay platform and applying it to screen a curated set of compound libraries against representative members of a target class. Small molecule methyltransferases (SMMTase) are a subclass of methyltransferase that act on metabolites to modulate signaling pathways, metabolize xenobiotics, or balance the available methyl pool. We screened four curated libraries totaling 27,574 unique compounds against the SMMTases nicotinamide N-methyltransferase (NNMT), phenylethanolamine N-methyltransferase (PNMT), histamine N-methyltransferase (HNMT), glycine N-methyltransferase (GNMT), catechol O-methyltransferase (COMT), and guanidinoacetate N-methyltransferase (GAMT). The data generated by this TCP can be leveraged for informed tool molecule development. For example, in the associated publication we identified a chemotype of HNMT-selective inhibitors. Additionally, we identified a putative SMMTase-selective inhibitor with potential as a tool molecule for studying broader methyltransferase biology.
(§5) High-through put screening assays were developed at the National Center for Advancing Translational Science (NCATS) for the enzymes NNMT, PNMT, HNMT, GNMT, COMT, and GAMT. Enzymatic activity was measured as a function of SAM cofactor conversion using the MTase Glo kit (Promega) for all enzymes. All assays were performed in 1536-well format with substrates and SAM concentrations at KM values. Enzyme concentration and assay timing were optimized for 10-20% SAM conversion. Initial screening of 27,574 compounds was done as single-point assays using the highest compound concentration (40 uM). […] These compounds were replated in 11-point dose response and assayed against NNMT, PNMT, HNMT, GNMT, COMT, GAMT, and a counter-assay. The IC50 and efficacy (maximal response) values were determined for each dose-response curve. These values are also accounted for in the area under the curve (AUC) values.
(§6) PROTOCOL TABLE (as described by Inglese J, Shamu CE and Guy RK. 2007)
(§7) SEQUENCE No. (e.g., 1, 2, 3, etc.); […] (e.g., Cells, Incubation, Reagent, etc.); VALUE; DESCRIPTION.
(§8) 1; Reagent; 2 uL; SMMTase Enzyme (2x) in reaction buffer, columns 1- 48.
(§9) 2; Reagent; 1 uL; SAM (4x) in reaction buffer, columns 1-48.
(§10) 3; Controls; 23 nL; DMSO in column 4; sinefungin in DMSO (0 uM - 40 uM) in 7-point 1:2 dilution series (n = 2) in column 2.
(§11) 4; Compounds; 23 nL; Columns 5-48.
(§12) 5; Reagent; 1 uL; Substrate (4x) in reaction buffer, columns 2-48.
(§13) 6; Time; 20-30 min; Incubation.
(§14) 7; Reagent; 1 uL; MTase-Glo reagent (5X), columns 1-48.
(§15) 8; Time; 30 min; Incubation.
(§16) 9; Reagent; 5 uL; MTase-Glo Detection reagent, columns 1-48.
(§17) 10; Time; 30 min; Incubation, luminescence evolution.
(§18) 11; Detection; Luminescence; ViewLux uHTS Microplate Imager (PerkinElmer).
(§19) NOTES (numbers refer to Sequence numbers above)
(§20) 1, 2, 5. White Medium Binding Greiner 1536-well plates (Cat #789175-F, Greiner Bio-One, Monroe, NC); Reaction buffer: 50 mM Tris, pH 8.0, 3 mM MgCl2, 1 mM EDTA, 50 mM NaCl, 1 mM DTT, and 0.1 mg/mL BSA. Evaporation was prevented by covering assay plates with metal lids containing holes to allow gas diffusion.
(§21) 1. Six SMMTase were profiled: HNMT, GNMT, PNMT, COMT, NNMT, GAMT
(§22) 5. The corresponding substrate was used for each enzyme: HNMT - 5.3 uM Histamine; GNMT - >500 uM Glycine; PNMT - 16.2 uM Norephinephrine; COMT - 13.7 uM Norephinephrine; NNMT - 3.8 uM Nicotinamide; GAMT - 2.5 uM Guanidinoacetate.6, 8, 10. Room temperature
(§23) 6. Final reaction conditions: 10 nM COMT, 5 uM SAM, 15 uM norepinephrine, 50 mM Tris, pH 8.0, 3 mM MgCl2, 1 mM EDTA, 50 mM NaCl, 1 mM DTT, and 0.1 mg/mL BSA; refer to tables 2 and S1 for specific timing.
8. […]

[2] = target: Guanidinoacetate N-methyltransferase (Homo sapiens) (UniProt Q14353); conditions: purified enzyme, MTase-Glo SAH luminescence; measured here: GAMT inhibition; at 40 µM; stronger effect = lower value
Text: as §1, §2, §3, §4, §5, §6, §7, §8, §9, §10, §11, §12, §13, §14, §15, §16, §17, §18, §19, §20, §21, §22, §23
8. […]

[3] = target: Histamine N-methyltransferase (Homo sapiens) (UniProt P50135); conditions: purified enzyme, MTase-Glo SAH luminescence; measured here: HNMT inhibition; at 40 µM; stronger effect = lower value
Text: as §1, §2, §3, §4, §5, §6, §7, §8, §9, §10, §11, §12, §13, §14, §15, §16, §17, §18, §19, §20, §21, §22, §23
8. […]

[4] = target: Nicotinamide N-methyltransferase (Homo sapiens) (UniProt P40261); conditions: purified enzyme, MTase-Glo SAH luminescence; measured here: NNMT inhibition; at 40 µM; stronger effect = lower value
Text: as §1, §2, §3, §4, §5, §6, §7, §8, §9, §10, §11, §12, §13, §14, §15, §16, §17, §18, §19, §20, §21, §22, §23
8. […]

[5] = target: Phenylethanolamine N-methyltransferase (Homo sapiens) (UniProt P11086); conditions: purified enzyme, MTase-Glo SAH luminescence; measured here: PNMT inhibition; at 40 µM; stronger effect = lower value
Text: as §1, §2, §3, §4, §5, §6, §7, §8, §9, §10, §11, §12, §13, §14, §15, §16, §17, §18, §19, §20, §21, §22, §23
8. […]
% is scaled to controls: 0 for no effect and ±100 for the full control effect.

Compound | activity change, negative = inhibition [1] | activity change, negative = inhibition [2] | activity change, negative = inhibition [3] | activity change, negative = inhibition [4] | activity change, negative = inhibition [5]
Cc1noc(C)c1CC(=O)N1CC[C@@H](NC(=O)c2cnccn2)[C@H](O)C1 | -4.88% | -11.3% | -4.63% | -18.6% | -14.7%
COc1cc(/C=C/C(=O)OC[C@H]2O[C@@](CO)(O[C@H]3O[C@H](CO)[C@@H](O)[C@H](O)[C@H]3O)[C@@H](OC(=O)/C=C/c3ccc(O)c(OC)c3)[C@@H]2O)ccc1O | 0% | -2.94% | 8.64% | -15.3% | -7.58%
Cc1cc(Cl)ccc1NC1CN(C(=O)OC(C)(C)C)C1 | 0.554% | -6.05% | 3.42% | -4.13% | -0.04%
CCCSCCCN1C(=O)c2cc3sccc3n2CC1(C)C(=O)NC1CCCCCC1 (stereo not given) | -6.32% | 1.65% | -0.676% | 0.818% | -2.29%
COc1cccc(CN2CCOCCNC(=O)CC2)c1 | 0.916% | -5.6% | 0.125% | -15.4% | -2.57%
CN1C(=O)c2cc(C(=O)NCc3ccccc3F)nn2CC1(C)C(=O)NCc1ccc(F)cc1 (stereo not given) | 0.283% | 2.23% | 3.03% | -3.57% | -2.39%
CN(C)C(=O)C(O)C(Cc1ccccc1)NC(=O)c1cc2cc(Cl)ccc2[nH]1 (stereo not given) | 4.55% | 9.1% | 10.5% | -11.9% | 1.23%
COc1ccc(CNC(=O)Cn2nc3n(CCC(C)C)c(=O)c4ccccc4n3c2=O)cc1 | 3.46% | 4.77% | 9.03% | 2.1% | 3.06%
Cc1cc2[nH]c(=O)[nH]c2cc1S(=O)(=O)N1CCCC1 | -2.52% | 2.54% | -6.27% | -4.76% | -8.02%
CCOc1ccc(C(=O)Nc2ccc3c(c2)C(=O)N(C)C2=NCCN23)cc1OCC | -1.5% | -0.002% | 0.343% | 2.6% | -0.717%
COc1ccc([C@H]2Cc3cccc(O)c3C(=O)O2)cc1OC | -15.7% | -5.85% | -6.16% | -21% | -3.56%
COC(=O)C(CC1CCCC1)c1ccc(S(C)(=O)=O)cc1 (stereo not given) | -0.617% | 5.17% | 9.78% | -18.2% | -2.05%
CCN1CCN(C(=O)c2ccc(-c3nnc4ccc(NC(=O)C5CC5)cn34)cc2)CC1 | -1.72% | -1.26% | -0.759% | -1.29% | -0.024%
CC1CCC2(C)CCC3(C)C(=CCC4C5(C)CCC(O)C(C)(C(=O)O)C5CCC43C)C2C1C (stereo not given) | 4.66% | 7.56% | 14.6% | -10.5% | 6.58%
CCN(CC)CCNC(=O)c1ccc(NS(C)(=O)=O)cc1 | 1.3% | 14.2% | 9.49% | -2.61% | 6.39%
Cc1cccc(N2CCN(C(=O)CCc3nnc4n(Cc5ccccc5)c(=O)c5ccccc5n34)CC2)c1C | 0.095% | 0.813% | 7.73% | 5.88% | 0.737%
CSc1ccc(CCN2C(=O)Cn3cccc3C2C(=O)NC2CCC(C)CC2)cc1 (stereo not given) | -0.89% | 4.1% | -2.69% | -9.53% | -2.08%
CNC(=S)NS(=O)(=O)c1cc(CCNC(=O)c2cc(Cl)ccc2OC)ccc1OC | -1.01% | -7.97% | -0.497% | -19.7% | -7.05%
CCCn1c(=O)c2cc(F)ccc2n2c(SCC(=O)Nc3cc(Cl)ccc3OC)nnc12 | -3.06% | 0% | 5.97% | 0.481% | -1.39%
O=C1CCCCC(C(=O)NC2CCCC2)N1 (stereo not given) | -1.55% | -1.82% | 2.26% | -3.6% | -0.728%
CC(C)CCNC(=O)C1(C)Cn2c(cc3ccccc32)C(=O)N1Cc1cccnc1 (stereo not given) | 8.55% | 4.63% | 10.8% | 13.7% | 4.41%
CCCN1C(=O)c2c(C(=O)NCc3ccc(OC)cc3)ncn2CC1(C)C(=O)NCc1ccccc1 (stereo not given) | -3.58% | 2.14% | 4.86% | -0.122% | 1.79%
Cc1ccc(-c2n[nH]n3c2nc(=O)c2ccc(C(=O)NC4CCCCC4)cc23)cc1 | -8.33% | -3.13% | 1.88% | 4.12% | -2.47%
COCC[C@]1(O)CCN(C(=O)c2cccc(OC)c2C)C[C@H]1C | -3.94% | -0.231% | -1.06% | -2.18% | 1.81%
O=C(NC[C@H]1O[C@@H](CO)[C@@H](O)[C@H]1N1CCN(c2ccccn2)CC1)Nc1ccccc1 | -3% | -4.26% | 0.763% | -9.9% | -8.61%
O=C(Cn1ccc2cc(S(=O)(=O)N3CCCC3)ccc21)NC1CCCc2ccccc21 (stereo not given) | 1.92% | 0% | -1.09% | -1.85% | -1.61%
C[C@H](C(=O)N1CCOCC1)C1CC[C@@]2(C)Cc3sc(-c4ccccc4)nc3[C@@H](C)[C@@H]2[C@H]1O (stereo not given in full) | -2.44% | -2.12% | 1.04% | -2.75% | -0.525%
CN(Cc1cccc(-c2nn[nH]n2)c1)C(=O)c1ccc(C2CCCNC2)cc1 (stereo not given) | -9.03% | -7.76% | -34.8% | -16.1% | -20.4%
O=C(NC1CCCN(C2CCCCCC2)C1)c1ccccc1C(F)(F)F (stereo not given) | -1.77% | -5.83% | -1.32% | -6.86% | -1.82%
COCC(=O)NC[C@H]1CCN(Cc2cccn2C)C[C@H]1N(C)C | -4.92% | -15.3% | -4.72% | -19.5% | -13.9%
